The IC50 comes from the fitted curve, where viability falls to half of the control; where the fit passes the top or lowest dose, that dose stands as a limit. The AUC spans the tested range (256-fold, ending at the top dose) of the same fit; values near 1 show little effect. Where the top dose is marked as inferred, it was calculated from the reported fits.

Compound in this assay: CCOc1cc2ncc(C#N)c(Nc3ccc(F)c(Cl)c3)c2cc1NC(=O)/C=C/CN(C)C [EKB-569]
The assay is described as follows: Viability of human cancer cell lines after 72 h of drug (GDSC screen). The settings on record: top dose inferred. On the procedure: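 Human cancer cell lines in 384-well plates, medium with 10% serum, drug for 72 h over a 256-fold dose range (nine 2-fold or five 4-fold steps up to the top dose). Adherent lines were fixed and stained with the nucleic acid dye Syto60, suspension lines read with resazurin; signal relative to control wells, capped at 0 and 100%. One two-parameter sigmoid per drug and line, fitted in a mixed model over all curves with the slope shared within a line.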
Take “CaR-1 (large intestine, adherent, top dose 2.5 µM)”: the AUC was determined as 0.944 and the IC50 is more than 2500 nM.

Consider “BL-41 (Burkitt lymphoma, suspension, top dose 2.5 µM)”, for which the AUC was found to be 0.656 and the IC50 amounted to 379 nM.

With “THP-1 (acute myeloid leukaemia, suspension, top dose 2.5 µM)”, the AUC came out at 0.124 and the half-maximal inhibitory concentration (IC50) was determined as 11.9 nM.

As to “NCI-H211 (small cell lung carcinoma, adherent, top dose 2.5 µM)”, the AUC was determined as 0.981 and the IC50 was more than 2500 nM.

For “NUGC-3 (stomach, adherent, top dose 2.5 µM)”, the AUC came out at 0.897 and the IC50 is more than 2500 nM.

Regarding “639-V (bladder, adherent, top dose 2.5 µM)”, the AUC came to 0.98 and the concentration for half-maximal inhibition (IC50) is more than 2500 nM.

Take “ONS-76 (medulloblastoma, adherent, top dose 2.5 µM)”: the AUC worked out at 0.791 and the IC50 is 1220 nM.

In the case of “EB2 (Burkitt lymphoma, suspension, top dose 2.5 µM)”, the AUC was found to be 0.576 and the IC50 turned out to be 246 nM.

As for “NCI-H1781 (lung adenocarcinoma, adherent, top dose 2.5 µM)”, the AUC came to 0.449 and the 50% inhibitory concentration (IC50) stood at 113 nM.

Turning to “NMC-G1 (glioma, adherent, top dose 2.5 µM)”, the AUC was determined as 0.854 and the IC50 was more than 2500 nM.

For the cell line “WM1552C (melanoma, adherent, top dose 2.5 µM)”, the AUC was determined as 0.831 and the IC50 is 1590 nM.

For “NB-4 (acute myeloid leukaemia, suspension, top dose 2.5 µM)”, the AUC stood at 0.491 and the IC50 came to 148 nM.

As for “G-292 Clone A141B1 (osteosarcoma, adherent, top dose 2.5 µM)”, the AUC is 0.944 and the IC50 is more than 2500 nM.

With “OVK-18 (ovary, adherent, top dose 2.5 µM)”, the AUC stood at 0.963 and the IC50 is more than 2500 nM.

Regarding “A704 (kidney, adherent, top dose 2.5 µM)”, the AUC amounted to 0.989 and the IC50 is more than 2500 nM.

With “LB2241-RCC (kidney, adherent, top dose 2.5 µM)”, the AUC was determined as 0.984 and the IC50 is more than 2500 nM.

“SJRH30 (rhabdomyosarcoma, adherent, top dose 2.5 µM)”: the AUC turned out to be 0.941 and the IC50 is more than 2500 nM.

Consider “ECC10 (stomach, suspension, top dose 2.5 µM)”, for which the AUC turned out to be 0.829 and the IC50 was determined as 1650 nM.

Consider “NCI-H1755 (lung adenocarcinoma, adherent, top dose 2.5 µM)”, for which the AUC turned out to be 0.561 and the IC50 turned out to be 235 nM.

On to “OV-56 (ovary, adherent, top dose 2.5 µM)”, for which the AUC was determined as 0.985 and the IC50 is more than 2500 nM.

In the case of “MDA-MB-175-VII (breast, adherent, top dose 2.5 µM)”, the AUC turned out to be 0.202 and the IC50 amounted to 18.3 nM.

In the case of “A253 (head and neck, adherent, top dose 2.5 µM)”, the AUC worked out at 0.85 and the IC50 was 1820 nM.

Consider “KU-19-19 (bladder, adherent, top dose 2.5 µM)”, for which the AUC was determined as 0.985 and the IC50 was more than 2500 nM.

Turning to “KE-37 (lymphoblastic leukaemia, suspension, top dose 20 µM)”, the AUC worked out at 0.065 and the IC50 was less than 78.1 nM.

Turning to “AM-38 (glioma, semi-adherent, top dose 2.5 µM)”, the AUC came to 0.881 and the IC50 was more than 2500 nM.

For the cell line “TGBC1TKB (biliary tract, adherent, top dose 2.5 µM)”, the AUC was 0.976 and the IC50 was more than 2500 nM.

As for “DU-4475 (breast, suspension, top dose 2.5 µM)”, the AUC came to 0.944 and the IC50 was more than 2500 nM.

As for “HCC-33 (small cell lung carcinoma, adherent, top dose 2.5 µM)”, the AUC was determined as 0.927 and the IC50 is more than 2500 nM.

In the case of “ABC-1 (lung adenocarcinoma, adherent, top dose 2.5 µM)”, the AUC amounted to 0.834 and the IC50 was 2110 nM.

For “697 (lymphoblastic leukaemia, suspension, top dose 2.5 µM)”, the AUC was determined as 0.365 and the IC50 is 71.9 nM.

Turning to “NCI-H28 (mesothelioma, adherent, top dose 2.5 µM)”, the AUC was determined as 0.96 and the IC50 is more than 2500 nM.

With “CP50-MEL-B (melanoma, adherent, top dose 2.5 µM)”, the AUC amounted to 0.982 and the IC50 was more than 2500 nM.

Turning to “DMS-79 (small cell lung carcinoma, suspension, top dose 2.5 µM)”, the AUC was 0.987 and the IC50 is more than 2500 nM.

For the cell line “IPC-298 (melanoma, adherent, top dose 2.5 µM)”, the AUC was 0.909 and the IC50 is more than 2500 nM.

“H2731 (mesothelioma, adherent, top dose 2.5 µM)”: the AUC came out at 0.954 and the IC50 was more than 2500 nM.

In the case of “ROS-50 (B-cell leukaemia, suspension, top dose 2.5 µM)”, the AUC was determined as 0.947 and the half-inhibitory concentration (IC50) was more than 2500 nM.

Take “T84 (large intestine, adherent, top dose 2.5 µM)”: the AUC was found to be 0.905 and the 50% inhibitory concentration (IC50) was more than 2500 nM.

Regarding “SK-LMS-1 (soft tissue, adherent, top dose 2.5 µM)”, the AUC was found to be 0.884 and the IC50 came out at 2480 nM.

As for “EMC-BAC-1 (lung adenocarcinoma, adherent, top dose 2.5 µM)”, the AUC turned out to be 0.556 and the IC50 amounted to 227 nM.

Regarding “JURL-MK1 (chronic myeloid leukaemia, suspension, top dose 2.5 µM)”, the AUC is 0.803 and the IC50 worked out at 1230 nM.

Turning to “CAKI-1 (kidney, adherent, top dose 2.5 µM)”, the AUC turned out to be 0.722 and the IC50 was 926 nM.

Turning to “J82 (bladder, adherent, top dose 2.5 µM)”, the AUC is 0.955 and the IC50 was more than 2500 nM.

Take “LOXIMVI (melanoma, semi-adherent, top dose 2.5 µM)”: the AUC came to 0.981 and the IC50 was more than 2500 nM.

For the cell line “IST-SL1 (small cell lung carcinoma, semi-adherent, top dose 2.5 µM)”, the AUC was found to be 0.873 and the IC50 is more than 2500 nM.

Consider “huH-1 (liver, adherent, top dose 2.5 µM)”, for which the AUC worked out at 0.977 and the concentration for half-maximal inhibition (IC50) was more than 2500 nM.

For “EFO-27 (ovary, adherent, top dose 2.5 µM)”, the AUC was determined as 0.829 and the IC50 turned out to be 2120 nM.

Take “JHU-011 (head and neck, adherent, top dose 2.5 µM)”: the AUC is 0.77 and the concentration for half-maximal inhibition (IC50) came out at 935 nM.

In the case of “MEL-JUSO (melanoma, adherent, top dose 2.5 µM)”, the AUC was 0.895 and the IC50 was more than 2500 nM.

For “MZ7-mel (melanoma, adherent, top dose 2.5 µM)”, the AUC is 0.952 and the IC50 was more than 2500 nM.

For the cell line “MDA-MB-453 (breast, adherent, top dose 20 µM)”, the AUC came out at 0.656 and the half-maximal inhibitory concentration (IC50) worked out at 3580 nM.

Take “SK-MEL-5 (melanoma, adherent, top dose 2.5 µM)”: the AUC worked out at 0.971 and the IC50 was more than 2500 nM.

For “Saos-2 (osteosarcoma, adherent, top dose 2.5 µM)”, the AUC was determined as 0.973 and the 50% inhibitory concentration (IC50) was more than 2500 nM.

In the case of “CHP-212 (neuroblastoma, adherent, top dose 2.5 µM)”, the AUC worked out at 0.826 and the IC50 was 1360 nM.

Take “KCL-22 (chronic myeloid leukaemia, suspension, top dose 2.5 µM)”: the AUC turned out to be 0.869 and the IC50 worked out at 1700 nM.

Regarding “RPMI-8866 (chronic myeloid leukaemia, suspension, top dose 2.5 µM)”, the AUC is 0.988 and the concentration for half-maximal inhibition (IC50) is more than 2500 nM.

“HAL-01 (lymphoblastic leukaemia, suspension, top dose 2.5 µM)”: the AUC stood at 0.5 and the IC50 is 157 nM.

Turning to “MONO-MAC-6 (acute myeloid leukaemia, suspension, top dose 2.5 µM)”, the AUC was found to be 0.817 and the IC50 turned out to be 1510 nM.

Regarding “U251 (glioma, adherent, top dose 2.5 µM)”, the AUC stood at 0.917 and the IC50 was more than 2500 nM.

As to “REH (B-cell leukaemia, suspension, top dose 2.5 µM)”, the AUC amounted to 0.67 and the IC50 stood at 456 nM.

For the cell line “TE-6 (oesophagus, adherent, top dose 2.5 µM)”, the AUC is 0.881 and the IC50 was more than 2500 nM.

With “JEG-3 (urogenital system, adherent, top dose 2.5 µM)”, the AUC was determined as 0.991 and the IC50 was more than 2500 nM.

On to “K2 (melanoma, adherent, top dose 2.5 µM)”, for which the AUC was determined as 0.97 and the IC50 was more than 2500 nM.

Turning to “IGR-1 (melanoma, adherent, top dose 2.5 µM)”, the AUC turned out to be 0.956 and the IC50 was more than 2500 nM.

Turning to “MN-60 (B-cell leukaemia, suspension, top dose 2.5 µM)”, the AUC came out at 0.944 and the IC50 was more than 2500 nM.

In the case of “NCI-H2172 (non-small cell lung carcinoma, adherent, top dose 2.5 µM)”, the AUC is 0.958 and the IC50 is more than 2500 nM.

By IC50 is commonly meant the concentration that gives 50% inhibition.
